# Data as given in the supplement of paper PMC3334620.
# The full ranking holds about 33,000 sequences; the median of “E-score (-0.5 to 0.5)” is about -0.011, and the highest 2% start at about 0.28. The list shows a part of the results.
# Target: T1, Gcr1 (UniProt P07261)
# T1 sequence: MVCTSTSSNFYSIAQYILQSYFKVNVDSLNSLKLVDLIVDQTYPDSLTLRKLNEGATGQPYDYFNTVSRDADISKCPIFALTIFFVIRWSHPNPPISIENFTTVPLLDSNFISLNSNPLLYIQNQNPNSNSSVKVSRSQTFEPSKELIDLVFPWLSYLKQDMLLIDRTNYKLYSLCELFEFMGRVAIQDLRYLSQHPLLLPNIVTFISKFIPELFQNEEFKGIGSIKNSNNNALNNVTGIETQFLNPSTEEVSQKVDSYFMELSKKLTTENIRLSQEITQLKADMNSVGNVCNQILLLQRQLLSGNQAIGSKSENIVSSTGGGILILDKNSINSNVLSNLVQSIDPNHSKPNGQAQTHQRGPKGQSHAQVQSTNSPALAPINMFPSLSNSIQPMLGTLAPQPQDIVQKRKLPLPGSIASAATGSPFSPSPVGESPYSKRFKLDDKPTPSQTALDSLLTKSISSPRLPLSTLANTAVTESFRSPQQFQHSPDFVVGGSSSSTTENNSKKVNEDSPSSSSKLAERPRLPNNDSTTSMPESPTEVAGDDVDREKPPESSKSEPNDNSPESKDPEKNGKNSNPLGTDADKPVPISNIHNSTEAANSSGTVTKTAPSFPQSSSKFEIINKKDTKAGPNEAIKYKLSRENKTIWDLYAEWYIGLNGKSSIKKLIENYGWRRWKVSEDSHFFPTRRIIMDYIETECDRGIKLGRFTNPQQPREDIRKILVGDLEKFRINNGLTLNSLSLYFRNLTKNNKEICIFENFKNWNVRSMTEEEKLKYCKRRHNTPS
# Assay: PBM E-score (8-mer binding enrichment) (E-score (-0.5 to 0.5)); higher = stronger / more preferred TF binding; most listed sequences are background and not binding sites
# Conditions: protein concentration: 100 nM; construct: GST-full length
# Description: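 Universal 'all 10-mer' protein binding microarrays (Agilent AMADID 015681) probed with GST-tagged S. cerevisiae TFs (full-length or DBD) made by in vitro transcription/translation (PURExpress), about 100-200 nM. Bound TF was detected with fluorescent anti-GST. Each ungapped 8-mer (which stands for itself and its reverse complement) is scored by the PBM enrichment score (E-score), a modified Wilcoxon-Mann-Whitney statistic from -0.5 to +0.5, computed with the Universal PBM Analysis Suite. Scale: above 0.35 generally sequence-specific binding.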
row,Sequence,PBM E-score
1,ATATACTA,0.174
2,ATCATACC,-0.0309
3,GAAGGCGA,0.0714
4,ACCCGGAC,-0.0451
5,AAAAAACA,0.115
6,ATTATCTA,0.0382
7,GTTATGCA,-0.0661
8,GACATGTC,-0.233
9,GGCTACCC,-0.0791
10,GGATCCGA,0.182
11,CGTTCGGC,-0.241
12,ATGTAGGA,0.00485
13,CGGTTTTC,0.0327
14,ATCGACAT,0.116
15,AGTATATC,0.0181
16,AAAAGAGC,-0.0507
17,CGTAACTA,-0.00037
18,CGGACCCG,0.145
19,ACCTCATC,-0.237
20,CGGGCTTA,0.00411
21,AACTGTAA,0.162
22,CCCGGAAC,-0.0107
23,GAGGCCGC,0.238
24,CTACCATC,-0.185
25,ATCTCATA,0.186

row,Sequence,PBM E-score
1,AGAGCTTA,-0.119
2,CGCATTAC,-0.0395
3,GCTGCACC,-0.168
4,GAGTGGCC,-0.213
5,AATGGTTC,-0.133
6,ACACGTCG,-0.0855
7,GGCAAAGA,-0.185
8,GCATCGCC,0.102
9,GACCGAAC,-0.0743
10,ATGAGACA,-0.0337
11,AGTGCGTG,-0.0812
12,GGCATACC,-0.144
13,ATATGAGC,-0.05
14,AGTAGTAC,-0.0479
15,CAATAAGC,-0.0044
16,CCTGCGTA,0.0119
17,AACTGTTA,0.0139
18,AACCGAGT,-0.184
19,CAAAGCTG,0.0879
20,AAGGTTAT,-0.21
21,GGCAGGGA,-0.0455
22,CAATCGCG,-0.213
23,ACGCGACC,-0.074
24,AGTAAGGA,-0.0361
25,CCCAATTC,0.108

row,Sequence,PBM E-score
1,CGTCGAGC,-0.162
2,TAACCCAA,0.0626
3,TCATGGCA,-0.091
4,GACGGCAA,-0.0533
5,CGCAAGCC,-0.151
6,ACTTTCCT,-0.102
7,ATGACTTC,0.0803
8,AAGGTAAG,-0.159
9,TATGCGCA,-0.00632
10,ACGCCTGA,-0.0957
11,GTGACTTA,0.00608
12,CATTTGGC,-0.0265
13,ATACGAAT,0.113
14,CCCACGCC,0.0129
15,ATCTCTCG,-0.095
16,GTTACAGA,-0.183
17,CCTCATCA,0.00334
18,TCGATTCA,0.045
19,CATTTAAG,0.0639
20,CGTAGCTC,0.0208
21,AAGAAGGC,0.0402
22,CGAATGAC,-0.177
23,GTAAAGAA,0.0282
24,CATTATAG,0.165
25,GCAGTTAC,0.0508

row,Sequence,PBM E-score
1,ACCGTTAC,-0.186
2,GACGCCTC,0.282
3,GGGAATTA,0.136
4,CACTCTAA,0.067
5,GTATCCCA,0.339
6,GGGGTCTA,-0.0583
7,CACCCATG,0.0166
8,CACTACTA,0.0899
9,ATTCGCAA,0.0529
10,AAAGGCAA,-0.186
11,AAACTCCT,-0.101
12,AATATAGA,0.0274
13,AGATCATA,-0.0179
14,CCGCAAGA,0.107
15,ACAGAAAA,-0.076
16,GACCTTGC,-0.167
17,GCATAGCA,-0.122
18,AGGTGCAC,0.00083
19,AAGTTTAT,-0.0796
20,CATCACTA,0.0362
21,GAATCATA,0.0695
22,AAAAGTGC,-0.00741
23,CCGGTTTA,0.0384
24,AGGCCAGA,-0.19
25,CCACCGGG,-0.148

row,Sequence,PBM E-score
1,CATTTAAA,0.287
2,GTCATAAC,-0.00864
3,CCGTACCA,0.0561
4,CGTTACCA,0.00841
5,CTTATTTC,0.129
6,ATTACTTA,0.136
7,CTAAAGAG,0.0527
8,CTAGACGC,0.0428
9,CCCCGACG,0.0178
10,AACATGTG,0.141
11,CGGTGACA,0.0502
12,CATAGCAC,-0.0291
13,CTAAACAG,0.168
14,AACCCGCG,-0.0103
15,CACTGTAC,-0.109
16,CATAATGC,0.0155
17,ACGTTGCT,0.119
18,GAACGACA,0.144
19,GCCTCCCA,0.0853
20,GGCAGGAC,-0.00665
21,GGATTAGA,0.0797
22,AGATAACG,-0.0569
23,CACTACGA,0.0464
24,GAAGCTGA,0.322
25,GCACCGAC,-0.0401

row,Sequence,PBM E-score
1,AGTTTTTG,0.0832
2,GATTTACA,-0.0196
3,CGCTGGAA,0.173
4,GGAAGTAA,0.00298
5,CGACGGCA,-0.024
6,AAGCTCTA,-0.107
7,ATCACGGG,-0.0862
8,CCGAATTC,0.176
9,GGTAATTA,-0.0768
10,GACATGAC,-0.118
11,CAATCGAG,0.00485
12,GAAATGCA,-0.122
13,GCGCTGCC,0.0863
14,CTGCTATA,-0.0923
15,GCGTGACA,-0.133
16,CCTAAGCA,-0.128
17,CATTCCCC,-0.0585
18,ACCATGTC,-0.0554
19,CGGTTTTA,0.0309
20,CCGGTTTC,0.238
21,GAAAAAAA,0.186
22,AGGCCCTG,-0.154
23,GACAAATC,-0.0172
24,CTAAGACA,0.0208
25,GAAAAGAC,-0.0878

row,Sequence,PBM E-score
1,CGCCTTAC,0.0782
2,CAAAAGGG,-0.0777
3,TCTGCTCA,-0.198
4,TTACTGAA,-0.127
5,GTACACGA,-0.0702
6,CCGTATGA,-0.00646
7,ATAGATAC,-0.00889
8,GACATTCA,-0.094
9,CGCGCTGA,-0.143
10,AGCAGTCC,-0.149
11,ACTAAGGA,-0.0844
12,TACTCAGA,0.108
13,ACATCGAT,-0.0188
14,ATTAGAGC,-0.121
15,GGAAATTA,0.0936
16,AGCTGGTA,0.136
17,CTCAGTCA,-0.0412
18,GACACGCC,-0.00487
19,GTGGAGGA,0.0415
20,CTGACTGC,-0.0274
21,GAGCCAGA,0.03
22,GAGAGCCC,-0.141
